Among the data in PubChem BioAssay (NCI) are growth values, retold here.

Some structures have more than one record in an assay (separate samples or runs), and their calls can disagree.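 Compound tested at a single concentration for 48 hours in 96-well plates; a percent growth value below 10 was scored as active.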 The source holds more than one record for some entries. This is not the full list of results. There may be further records. These are repeated runs of one drug, at its own concentration, as given; each value is one run. Counts like (3×) count equal records among those shown.

Common to all, as to assay: NCI-60 one-dose screen, 48 h (100 = growth as untreated, 0 = no growth, -100 = all killed)
Holding throughout (conditions): 2.5 mM

Test [1] concerns DU-145 prostate.
The test system of test [2] is K-562 leukemia.
In test [3] the test system is MALME-3M melanoma.

For `O=c1[nH]cc(F)c(=O)[nH]1`, the growth result is “active: 9.35, 8.89, -12.6, -2.65, -17.5% and inactive: 30.5, 22.4, 20.1, 26.5, 32, 38, 10.1, 24, 17.4, 29.7, 24.9, 25.3, 27.9, 23.4, 20.8, 22.1, 11.6, 43.3, 15.2, 14.8%” in test [1] (runs of 1998); “inactive: 34.3, 20.4, 47.1, 27.1% and active: -6.27, -6.29, -51.4, -13.7, 0.192, -46.6, -69.6, -0.638, 0.227, -68.5, -77.5, -100, -38%” in test [1] (runs of 1999); “active: 1.34, 5.87, -25.2, 0.984%” in test [1] (runs of 2000); “inactive: 19.4, 21.5 (2×), 23.2, 18.4 (2×), 12.2, 19.9, 16.4, 13.4, 58.8, 24.5, 20.1, 21.4 (2×), 52.1 (2×), 15.8, 21.3, 12.9%” in test [2] (runs of 1991); “inactive: 27.9, 21.7 (2×), 19, 22.2 (3×), 30.6, 22.4 (2×), 13.9 (2×), 19.4 (3×), 16.1 (4×), 24.4, 18.1, 13.5, 25.7 (3×), 24.9, 15.8, 13.7, 39.8, 47.5, 20.8 (3×), 16, 24.6, 12.5, 25.5, 21, 22.3 (4×), 22.5 (2×), 25.8, 13.2 (2×), 20.2 (2×), 27.6, 17.4 (2×), 23.9 (2×), 24.5, 18.5, 15.1, 25.3 (2×), 24.1, 27, 23.3, 22.6, 15.4, 11.5, 17.1, 35.5, 14.1, 16.4, 17, 16.2, 16.6 (2×), 16.9, 21.6, 17.9, 20.6 (2×), 16.3, 21.9, 21.3, 19.7 (2×), 21.2 (2×), 27.8, 17.6, 13.1 (2×), 18.4, 45.5, 14.8, 19.6 (2×), 33.3, 22, 14, 12.2, 46.3, 15.6, 40.5, 17.7, 26.7, 14.5, 55.2, 25.9, 20.9, 25.1, 29, 26.9, 18.7% and active: 9.83, 8.83, 5.67, 6.2, -5.13, -40.6, -9.5, 5.71, -62.7%” in test [2] (runs of 1992); “inactive: 18.4 (2×), 23.4, 17.3, 38.2, 68.2, 14.8 (2×), 22.2, 16.8, 22.8, 45.4, 10.4, 14.5, 30.8, 21.2, 23, 16.3, 61.5, 30.1, 24.8, 19.4, 17.5, 20.2, 14.6, 19, 26.3, 17.4, 27.1, 18.8, 38.4, 33.3, 14.7, 13.2, 25.5, 20.3, 36.5, 25.1, 15.9 (2×), 15.6, 28.4% and active: 6.31, -7.94, 5.79, 6.24, 1.17%” in test [2] (runs of 1993). For the same molecule, the growth result in test [2] (runs of 1994) was “inactive: 17.7, 16.8 (2×), 20.1, 14.8, 36.5, 36.1, 21.3, 23.9, 15.9, 69.8, 16.3, 17.9, 18.2, 15.2, 15.6, 11.9, 40.3, 27.9, 28.4, 12.5, 18.8, 21.4, 23.3, 27.6, 10.6, 18.1, 35.8% and active: 6.17, 7.27, 4.85, -7.22%”; in test [2] (runs of 1995), “inactive: 16.3, 23.4, 16 (3×), 17.6, 14.3, 20.4, 14.5, 12.2, 14.7, 14.9, 11, 18.5, 26, 27.6, 18.3, 12.4, 12.6, 24.4, 55.6, 14.4, 27.7, 17.2, 17.9, 18.4% and active: -50.2, -14.2, 7.32, 5.84, 8.59, 6.89, 8.25, 3.59, -21.3, 5.8%”; in test [2] (runs of 1996) it was “inactive: 23.3, 47.8, 10.5, 23.6, 21, 19, 12.5, 122, 13.5, 28.8, 15.8, 11.4, 14, 10.9, 15.5, 10.2, 11.6, 23.7, 17.4 (2×), 18, 19.6, 30.2, 78.6, 15.1, 14.5, 12.9 (2×), 50.1, 28.5, 25.4, 28.1, 22.3% and active: 4.6, 6.05, 2.37, -2.79, 6.09, 5.99, 2.65, -21.9, 7.6, 8.11, 3.93, 2.44, -30.1, 6.94%”; in test [2] (runs of 1997), “active: 6.51, -9.95, -87.3, -32, -27.1, -4.12% and inactive: 21.9, 20.8, 38.2, 13.4, 22.7, 11.7, 31.6, 16.4, 56.8, 12.6, 36, 17.4, 33.5, 18.7, 27.4, 116, 20.4, 11.2, 61.1, 27, 18.6, 18.3, 14.9, 43.3, 10.9, 40.6, 43.1, 14%”; in test [2] (runs of 1998) it was “inactive: 19.4, 28, 33.2, 33.9 (2×), 46.5, 30.9, 23.9, 18, 19.6, 15.5 (2×), 22.9, 31.3, 19 (2×), 34.3, 19.2, 14.2, 26.6% and active: 3.16, -13.4, -15.5, 9.36%”; in test [2] (runs of 1999), “active: 9.8, 0.586, 1.17, 1.14, -85.5, -19.7, 1.23, 4.63, 0.416, 4.73, 4.01% and inactive: 30.3, 21, 55.3, 17.6, 46.8, 37.5, 115%”. Moreover, the growth result in test [2] (runs of 2000) was “active: 1.06%, 7.52%, 1.08% and inactive: 14.6%”; in test [3] (runs of 1991) it was “active: 0.906, -12.3, 9.92, -0.232, 6.93, 7.48, 5.66% and inactive: 29.6, 30.6, 33.9, 20.5, 18.5, 26.8, 15.9, 23.9, 39.8, 40.5, 21.1, 39.3%”; in test [3] (runs of 1992), “inactive: 17.2, 17.1, 10.4, 15.2, 11.6, 26.8, 20.9, 20.7, 16.4 (2×), 29.5, 20.3, 52.5, 11.1, 41.2, 49.6, 17.9, 24.8, 15.5, 17.8, 11.2, 35.7, 32.7, 48.9, 41, 12.5, 10.6 (2×), 26.5, 14.3, 28.5, 34.4, 22.1, 10.3, 12.3, 102, 17.5, 16.3, 21.5, 11.8, 18.7, 26 (2×), 34.8, 23, 25.3 (2×), 15.8, 19.7, 25.1, 14.2 (2×), 19, 33.9 (2×), 13.9, 11.4 (2×), 15.7, 14.9, 17, 11.3, 43.1, 26.2, 21.7, 24.6, 22.9, 10.2, 37.8, 21.9, 30% and active: 5.27, 1.71, -5.9, 0.54, 7.09, 2.21, -1.96, 3.99, 9.12, -4.06, 4.56, 5.39, 4.09, -8.17, 4.14, 1.25, 0.321, -2.51, -21.5, -0.548, -34.5, -1.55, 3.84, 8.17, 7.21, 8.57, 5.44, -8.82, -8.96, 4.91, 6.62, 9.95, 5.5, 5.25, -15.8, -8.43, -8.84, 0.803, 5.79, -8.26, -0.219, 9.19, -21, -11.8, -9.59, -5.43%”.
